# Test results as given in the supplement of paper PMC9446081.
# The whole screen tested about 39,000 compounds, of which about 220 (0.56%) showed activity. The list shows a part of the results.
# Tested on: Escherichia coli K-12 BW25113
# Test: relative growth (OD600 normalised to plate interquartile mean) (fraction); higher = less growth inhibition, active = 0.2 or less
# Details: 50 µM; LB; incubation time: overnight (16-24 h)
# 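Further: static incubation at 37 °C against the wild-type strain, values averaged over two biological replicates.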
row,Compound,relative growth
1,COc1ccc(S(=O)(=O)Nc2ccc3c(c2)C(=O)N([C@H](C)CO)C[C@@H](C)[C@H](CN(C)Cc2ccc(-c4ccccc4)cc2)O3)cc1,inactive: 1.04
2,COc1ccc(S(=O)(=O)N(C)C[C@H]2Oc3ccc(NC(=O)CCCN(C)C)cc3CC(=O)N([C@H](C)CO)C[C@H]2C)cc1,inactive: 0.973
3,Cc1noc(C)c1NC(=O)Nc1cccc2c1O[C@H](CN(C)C(=O)Nc1ccc(C(F)(F)F)cc1)[C@@H](C)CN([C@H](C)CO)C2=O,inactive: 0.99
4,COc1ccc2c3c([nH]c2c1)[C@@H](CO)N(C[C@]13CCN(CC1)C(=O)c1cnccn1)C(=O)c1cnccn1,inactive: 0.988
5,CCS(=O)(=O)N1C[C@]2(CCN(CC2)C(=O)Nc2c(noc2C)C)c2c(n(c3cc(ccc23)OC)C)[C@H]1CO,inactive: 0.983
6,CCc1nnc(SCC(=O)OC)[nH]1,inactive: 0.928
7,CN(C)CC(=O)N[C@@H]1CC[C@@H](CCNC(=O)C2CC2)O[C@@H]1CO,inactive: 0.991
8,CC(C)NC(=O)N(C)C[C@@H]1Oc2c(NC(=O)NC3CCCCC3)cccc2C(=O)N([C@H](C)CO)C[C@@H]1C,inactive: 0.983
9,C[C@@H]1CN([C@@H](C)CO)C(=O)CCCn2cc(nn2)CO[C@H]1CN(C)C(=O)c1ccc(N2CCN(C)CC2)cc1,inactive: 1.01
10,O=C(C[C@@H]1CC[C@H]2[C@@H](COC[C@@H](O)CN2S(=O)(=O)c2cccc(Cl)c2)O1)NCc1ccc2c(c1)OCO2,inactive: 0.991
11,O=C(C[C@H]1CC[C@H]2[C@@H](COC[C@@H](O)CN2S(=O)(=O)c2cccc(Cl)c2)O1)NCCCN1CCOCC1,inactive: 1.01
12,COc1ccc(NC(=O)Nc2ccc3c(c2)C(=O)N([C@@H](C)CO)C[C@@H](C)[C@@H](CN(C)C(=O)Nc2ccccc2)OCCCC[C@H](C)O3)cc1,inactive: 1.02
13,C[C@H](CO)N1C[C@H](C)[C@@H](CN(C)Cc2ccc(Cl)c(Cl)c2)Oc2c(NC(=O)CCCCCC(=O)Nc3ccccc3N)cccc2C1=O,inactive: 1.02
14,C[C@@H]1CN([C@H](C)CO)C(=O)c2cccc(NC(=O)c3ccncc3)c2O[C@H]1CN(C)Cc1ccc(C(=O)O)cc1,inactive: 0.973
15,C[C@H]1CN([C@@H](C)CO)C(=O)c2cc(C#CCN(C)C)cnc2O[C@H]1CN(C)S(=O)(=O)c1ccccc1,inactive: 0.997
16,COc1cccc(NC(=O)N(C)C[C@@H]2Oc3cc(C#Cc4ccncc4)ccc3S(=O)(=O)N([C@@H](C)CO)C[C@H]2C)c1,inactive: 1.03
17,COc1ccc(NC(=O)N(C)C[C@H]2Oc3cc(Br)ccc3S(=O)(=O)N([C@H](C)CO)C[C@@H]2C)cc1,inactive: 0.95
18,C[C@@H]1CN([C@H](C)CO)C(=O)Cc2cc(NC(=O)Cc3cn(C)c4ccccc34)ccc2O[C@@H]1CN(C)Cc1ccc(C(F)(F)F)cc1,inactive: 1.05
19,CC(C)NC(=O)N(C)C[C@@H]1OCCCC[C@@H](C)Oc2ccc(NC(=O)Nc3cccc4ccccc34)cc2C(=O)N([C@@H](C)CO)C[C@H]1C,inactive: 1.02

row,Compound,relative growth
1,COCC#Cc1ccc2c(c1)O[C@H](CN(C)S(=O)(=O)c1ccc(OC)cc1)[C@@H](C)CN([C@@H](C)CO)S2(=O)=O,inactive: 0.998
2,COc1ccc(NC(=O)Nc2ccc3c(c2)C(=O)N([C@H](C)CO)C[C@H](C)[C@@H](CN(C)S(=O)(=O)c2ccccc2)OCCCC[C@@H](C)O3)cc1,inactive: 0.994
3,CC(C)NC(=O)Nc1ccc2c(c1)CC(=O)N([C@H](C)CO)C[C@@H](C)[C@H](CN(C)Cc1ccc(Oc3ccccc3)cc1)O2,inactive: 0.963
4,CCNC(=O)[C@@H]1[C@@H](CO)[C@@H]2Cn3c(ccc(-c4ccccc4OC)c3=O)[C@@H]2N1S(C)(=O)=O,inactive: 0.989
5,COc1ccc(S(=O)(=O)N[C@H]2CC[C@@H](CC(=O)N3CCN(c4ccccc4)CC3)O[C@@H]2CO)cc1,inactive: 1.03
6,C[C@@H]1CCCCO[C@@H](CN(C)S(=O)(=O)c2cn(C)cn2)[C@@H](C)CN([C@H](C)CO)C(=O)c2cc(NS(=O)(=O)c3ccc(F)cc3)ccc2O1,inactive: 0.999
7,Fc1ccc(-c2n[nH]c(=S)o2)cc1,inactive: 0.932
8,Cc1noc(C)c1NC(=O)Nc1cccc2c1O[C@@H](CN(C)Cc1ccc(-c3ccccc3)cc1)[C@@H](C)CN([C@@H](C)CO)C2=O,inactive: 1.03
9,CC(C)CC#Cc1ccc2c(c1)O[C@@H](CN(C)CC1CCOCC1)[C@H](C)CN([C@@H](C)CO)S2(=O)=O,inactive: 0.999
10,C[C@H](CO)N1C[C@H](C)[C@@H](CN(C)Cc2ccc(C(=O)O)cc2)OCCCC[C@H](C)Oc2ccc(NC(=O)Nc3cccc4ccccc34)cc2C1=O,inactive: 1.05
11,CC(C)NC(=O)N(C)C[C@H]1Oc2ccc(NC(=O)Nc3ccc4c(c3)OCO4)cc2CC(=O)N([C@H](C)CO)C[C@@H]1C,inactive: 1.01
12,C[C@@H]1CN([C@H](C)CO)C(=O)Cc2cc(NC(=O)Cn3cnnn3)ccc2O[C@H]1CN(C)CC1CCCCC1,inactive: 0.97
13,CO[C@H]1CN(C)C(=O)c2ccc(NS(=O)(=O)CC(F)(F)F)cc2OC[C@H](C)N(C(=O)c2ccc3c(c2)OCO3)C[C@@H]1C,inactive: 0.97
14,O=C(C[C@@H]1CC[C@@H]2[C@H](COC[C@H](O)CN2S(=O)(=O)c2ccc(F)cc2)O1)NCCN1CCCCC1,inactive: 0.987
15,[O-][NH2+]N(CCO)CCO,inactive: 0.981
16,C[C@@H]1CN([C@@H](C)CO)C(=O)c2c(c3ccccc3n2C)-c2ccccc2CO[C@@H]1CN(C)C(=O)NC1CCCCC1,inactive: 1
17,COc1ccc(-c2cnc3c(c2)C(=O)N([C@H](C)CO)C[C@H](C)[C@H](CN(C)C(=O)C2CCOCC2)O3)cc1,inactive: 0.986
18,COCC(=O)N1C[C@H](C)[C@@H](OC)CN(C)C(=O)c2ccc(NC(=O)c3ccc(F)cc3)cc2OC[C@H]1C,inactive: 0.985
19,COc1ccc(NC(=O)N(C)C[C@H]2OCCCC[C@H](C)Oc3ccc(NS(=O)(=O)c4cccs4)cc3C(=O)N([C@H](C)CO)C[C@@H]2C)cc1,inactive: 0.999
